In PubChem BioAssay AID686978 (National Center for Advancing Translational Sciences (NCATS), 2013):
About 64,000 (15%) of roughly 420,000 compounds were called active. This list was built around the results that the source calls inconclusive (neither active nor inactive); the mix of calls is not that of the screen. The call rests on the fitted dose curve; in most records, active means well fitted inhibition curve with a large enough effect; inconclusive means small, poorly fitted or top-dose-only effect; inactive means flat fitted curve, though single readings scatter. No potency is given beside an inconclusive call; the fits are too rough.

Test: qHTS for Inhibitors of human tyrosyl-DNA phosphodiesterase 1 (TDP1): qHTS in cells in absence of CPT; further: nearly all actives have a fitted effect of over 55% in size
Settings: DT40 Tdp1-/- hTDP1 cells, no CPT, ATP luminescence, 48 h; activity change, negative = growth inhibition: at 46.2 µM (top of the series) unless noted
How it was run: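 Growth kinetics read by CellTiter-Glo luminescence after ≥48 hr at 37 °C. Cells: DT40 Tdp1-/- stably carrying human TDP1, 400 per well, compound exposure in the absence of CPT (DMSO vehicle).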
On the % scale 0 is the no-effect control and ±100 the full control effect; potency means the concentration at half of the fitted maximal effect; tags describe the fitted curve by direction and shape.

Compound | Potency | activity change, negative = growth inhibition
CC(C)Oc1ccc(CNC(=O)c2cccc(NC(=O)c3nsc4ccccc34)c2)cc1 | active: 9.2 µM | –
Cc1c(NC(=O)C(Sc2ccccc2)c2ccccc2)cccc1[N+](=O)[O-] (stereo not drawn) | inconclusive [inhibitor, single point] | –
CN(C)c1ccnc2sc3c(SCc4ccc(Cl)cc4)ncnc3c12 | active: 13 µM | –
CC(=O)c1c[nH]c2ccc(C)cc2c1=O | inconclusive [inhibitor, partial curve, poor fit] | –
CCN1/C(=N\N)c2cccc3cccc1c23 | active: 20.6 µM | –
Cc1c(-c2cccs2)[n+](=O)c2c(n1[O-])CCCC2 | inactive | –
Cc1ccc(NCc2nnc(SCC(=O)Nc3ncc(C)s3)n2CC2CCCO2)c(C)c1 (stereo not drawn) | inconclusive [inhibitor, single point] | –
O=C(Nc1nc(-c2ccco2)c(-c2ccco2)s1)C1CC(=O)N(c2ccc3c(c2)OCCO3)C1 (stereo not drawn) | inconclusive [inhibitor, single point] | –
COCCN(C(=O)c1cc(-c2ccco2)nc2ccccc12)c1c(N)n(Cc2ccccc2)c(=O)[nH]c1=O | inconclusive [inhibitor, single point] | –
O=S(=O)(NCC(c1ccco1)N1CCc2ccccc2C1)c1ccc(Br)cc1 (stereo not drawn) | inconclusive [inhibitor, single point] | –
Cc1ccccc1Nc1nc(N)nc(COC(=O)[C@@H](NC(=O)c2ccccc2Cl)C(C)C)n1 | inconclusive [inhibitor, single point] | –
O=c1c(Cc2c(F)cccc2Cl)c(O)ccn1CCc1c[nH]c2ccccc12 | inactive | –
O=C(Nc1ccc(C(=O)OCc2cc(=O)n3ccsc3n2)cc1)c1cccc(F)c1 | inactive | –
Cc1ccc(Nc2nc(N/N=C\c3ccc4c(c3)OCO4)nc(N3CCOCC3)n2)cc1 | active: 9.2 µM | –
Cc1cc(C)cc(NC(=O)N2CCC(N3CCN(Cc4ccccc4)C(=O)C3=O)CC2)c1 | inactive | –
Cc1cc(/C=N/NC(=O)c2cccnc2)c(C)n1CC(C)C | inactive | –
CN1CCN(S(=O)(=O)c2cccc(S(=O)(=O)c3ccc(Cl)c(Cl)c3)c2)CC1 | inconclusive [inhibitor, single point] | –
COc1cc(CCC(=O)OCC(=O)Nc2ccc3c(c2)OCO3)cc(OC)c1OC | inactive | –
NC(=O)c1ncc(C(F)(F)F)cc1Oc1cccc(C(F)(F)F)c1 | inconclusive [inhibitor, full curve, poor fit] | –
O=c1cc(CN2CCOCC2)c2cc(Cl)c(O)cc2o1 | – | inconclusive: -34.8% [inhibitor]
Cn1c(C(=O)N2CCC(C(=O)N3CCN(c4ccccc4)CC3)CC2)cc2sccc21 | inconclusive [inhibitor, single point] | –
COc1ccc(CCNc2ccncn2)cc1OC | inactive | –
COc1ccc(NC(=O)CCCn2c(=O)c3sccc3n(Cc3ccccc3C)c2=O)cc1 | inconclusive [inhibitor, single point] | –

Compound | Potency | activity change, negative = growth inhibition
Cc1c(C)n(Cc2ccccc2)c2ncnc(NN)c12 | inconclusive [inhibitor, single point] | –
CN(C)S(=O)(=O)c1cc(NC(=O)CN2CCOCC2)ccc1Cl | inconclusive [inhibitor, single point] | –
Cc1ccc(CNC(=O)c2c[nH]n3c(=O)c(Cc4ccc(F)cc4Cl)c(C)nc23)cc1 | inconclusive [inhibitor, single point] | –
O=C(O)/C=C/C(=O)NCCC(c1ccccc1)c1ccccc1 | inconclusive [inhibitor, single point] | –
C[C@H](CO)N1C[C@H](C)[C@@H](CN(C)Cc2ccc(Cl)c(Cl)c2)Oc2c(NC(=O)Cc3ccccc3)cccc2C1=O | active: 14.6 µM | –
COc1ccc(C2CC(=O)Oc3c(C(CCN4CCN(c5ccccc5)CC4)c4ccc(N(C)C)cc4)c(OC)cc(OC)c32)cc1 (stereo not drawn) | inconclusive [inhibitor, single point] | –
CCOC(=O)c1sc2nc(C)nc(Nc3ccc(OC)cc3)c2c1C | inconclusive [inhibitor, partial curve] | –
NC(=O)c1cc2ccccc2o/c1=N\NC(=O)c1ccc(F)cc1 | active: 8.2 µM | –
CCN1CCN(c2ccc(NC(=O)COc3ccc(Cl)cc3C)cc2)CC1 | inconclusive [inhibitor, partial curve, poor fit] | –
CCNC(=O)c1cnn(-c2ccccc2)c1-c1ccccc1 | inconclusive [inhibitor, partial curve, poor fit] | –
Cc1nc2sc3c(c2c(=O)n1/N=C/c1ccco1)CCCC3 | inconclusive [inhibitor, partial curve] | –
COc1ccc(N2Cc3cccc(C(=O)Nc4cccc(F)c4)c3C2=O)cc1 | inactive | –
CC(=O)c1ccc(-c2ccc(C(=O)N3CCN(c4ccc(F)cc4)CC3)o2)cc1 | inconclusive [inhibitor, single point] | –
O=C(CSc1nc2c(c(=O)n1-c1ccc(F)cc1)SCC2)N1CCCC1 | inconclusive [inhibitor, single point] | –
CCC(C)(C)C1CCc2[nH]nc(C(=O)NC(C)C)c2C1 (stereo not drawn) | active: 20.6 µM | –
COc1cccc(NC(=O)N(CCCN2CCOCC2)C(C)c2cc3cccc(OC)c3o2)c1 (stereo not drawn) | inconclusive [inhibitor, single point] | –
CCCCC(=O)Oc1ccccc1C1SCc2cc(C)c(C)cc2CS1 | inconclusive [inhibitor, partial curve] | –
Cc1nnsc1C(=O)NCC1Cc2cccc(-c3ncccn3)c2O1 (stereo not drawn) | inactive | –
C[C@H](NC(=O)c1[nH]cnc1C(=O)Nc1ccccc1)c1ccccc1 | inconclusive [inhibitor, partial curve] | –
C=CC[C@@H](Cc1ccc(F)cc1)C(=O)OC[C@H]1CCCN1C(=O)[C@@H](CC=C)CC(=O)N(CCO)Cc1ccccc1 | active: 13 µM | –
CC12CCC(=O)N1C(C(=O)Nc1ccc(Cl)c(S(=O)(=O)N3CCCCC3)c1)CS2 (stereo not drawn) | inconclusive [inhibitor, single point] | –
CCN1CCN(c2cc(C)c3cc(NC(=S)N(CC)CC)ccc3n2)CC1 | inconclusive [inhibitor, single point] | –
C=CCNc1cc(=O)n(Cc2ccccc2)c(=O)[nH]1 | active: 18.4 µM | –

Compound | Potency | activity change, negative = growth inhibition
COc1ccccc1S(=O)(=O)N(C)C[C@H]1Oc2ncc(Br)cc2C(=O)N([C@H](C)CO)C[C@H]1C | inconclusive [inhibitor, full curve, poor fit] | –
CCCCOc1ccc(C(=O)NCC(=O)NCC2CCCO2)cc1 (stereo not drawn) | inconclusive [inhibitor, single point] | –
Cc1nc(NC(C)C)c2oc3ccccc3c2n1 | active: 13 µM | –
O=C(Nc1ccc(N2CCOCC2)cc1)C1CCCN(S(=O)(=O)c2ccccc2)C1 (stereo not drawn) | inconclusive [inhibitor, single point] | –
CCN1CCN(C(=O)c2sc3ncnc(N4CCc5ccccc5C4)c3c2C)CC1 | inconclusive [inhibitor, single point] | –
COc1ccccc1NCC(=O)c1ccc(C)c(C)c1 | inconclusive [inhibitor, partial curve] | –
CCCC(=O)Nc1nc2ccc3nc(C)sc3c2s1 | inconclusive [inhibitor, single point] | –
Cc1cc(F)ccc1S(=O)(=O)N1CCCCC1CCNC(=O)C(=O)NCc1ccccn1 (stereo not drawn) | active: 16.4 µM | –
C#CCOCCOCCOCCNc1nc(N2CCN(C(=O)[C@H]([C@@H](C)CC)n3cc([C@@H](N)CC(C)C)nn3)CC2)nc(N2CCN(C(=O)[C@H]([C@@H](C)CC)n3cc([C@@H](N)CC(C)C)nn3)CC2)n1 | inconclusive [inhibitor, single point] | –
Cc1ccc(S(=O)(=O)c2nc(C)c3c(n2)CCC3)cc1 | inactive | –
CC1C(=O)N(Cc2cn(CC3CCCCC3)nn2)CCS(=O)(=O)N1Cc1ccc(-c2ccc(Cl)c(Cl)c2)cc1 (stereo not drawn) | active: 9.2 µM | –
CC(=O)Nc1cc(-c2cccc(C(=O)NCCN(C)C)c2)cn2c(-c3ccc(C(C)=O)cc3)cnc12 | active: 20.6 µM | –
COc1cc(/C=C2\SC(N)=NC2=O)ccc1OCC(=O)Nc1ccccc1C | active: 9.2 µM | –
O=C(N/N=C/c1ccc(O)c(O)c1)c1cccc(S(=O)(=O)N2CCCC2)c1 | inconclusive [inhibitor, single point] | –
CCOC(=O)c1ccc(-c2ccc(/C=C(\C#N)C(=O)NCc3cccs3)o2)cc1 | active: 18.4 µM | –
Cc1ccc(C(=O)/C=C/Nc2cccc(O)c2)cc1 | inconclusive [inhibitor, single point] | –
O=S1c2ccccc2Oc2ccccc21 | inactive | –
O=C(NC(=O)c1cccc(F)c1)Nc1nc(-c2ccc(F)cc2)cc(C(F)(F)F)n1 | inactive | –
Cc1ccc(-c2nnc(-c3cccc(Br)c3)o2)cc1 | inconclusive [inhibitor, single point] | –
COc1ccc(N2CCN(C(=O)CCNS(=O)(=O)c3cc(Br)cnc3N)CC2)cc1 | inconclusive [inhibitor, single point] | –
Cc1cccc(OCCNc2ccc([N+](=O)[O-])cn2)c1 | inconclusive [inhibitor, partial curve] | –
Cc1nc(S/C(=C/c2ccc(-c3cccc(Cl)c3)o2)C(=O)O)n[nH]1 | inactive | –
